Measured values from a collection of fitness landscapes (doi:10.1126/science.1257360).
The other results are listed elsewhere or left out.

B1: PhoQ; a variant is named by its letters at X, in order, P23837 (parent)
chain: MKKLLRLFFPLSLRVRFLLATAAVVLVLSLAYGMVALIGYSVSFDKTTFRLLRGESNLFYTLAKWENNKLHVELPENIDKQSPTMTLIYDENGQLLWAQRDVPWLMKMIQPDWLKSNGFHEIEADVNDTSLLLSGDHSIQQQLQEVREDDDDAEMTHSVAVNVYPATSRMPKLTIVVVDTIPVELKSSYMVWSWFIYVLSANLLLVIPLLWVAAWWSLRPIEALAKEVRELEEHNRELLNPATTRELTSLVRNLNRLLKSERERYDKYRTTLTDLTHSLKTPLXXLQXXLRSLRSEKMSVSDAEPVMLEQISRISQQIGYYLHRASMRGGTLLSRELHPVAPLLDNLTSALNKVYQRKGVNISLDISPEISFVGEQNDFVEVMGNVLDNACKYCLEFVEISARQTDEHLYIVVEDDGPGIPLSKREVIFDRGQRVDTLRPGQGVGLAVAREITEQYEGKIVAGESMLGGARMEVIFGRQHSAPKDE

Variants of: B1
Assay: enrichment ratio after two sorts for PhoP signalling (ratio (wild type AVST 3.29)); higher = more functional
Details: with PhoP (E. coli)
With TGRC the enrichment ratio was ≤ 0.25. For IVIQ, the enrichment ratio was ≤ 0.25. With IHVP the enrichment ratio was ≤ 0.25. For VSTD, the enrichment ratio was ≤ 0.25. IHPC was tested, and the enrichment ratio was ≤ 0.25. In the case of AAAP, the enrichment ratio is reported as ≤ 0.25. With HREA the enrichment ratio was ≤ 0.25. With AFVY the enrichment ratio was ≤ 0.25. With WKKL the enrichment ratio was ≤ 0.25. In the case of WQVF, the enrichment ratio is reported as ≤ 0.25. For ENRI, the enrichment ratio was ≤ 0.25. For RAAH, the enrichment ratio was ≤ 0.25. For FFEI, the enrichment ratio was ≤ 0.25. In the case of DQWC, the enrichment ratio is reported as ≤ 0.25. Variant FSTI has an enrichment ratio of 1.62. With LVIN the enrichment ratio was ≤ 0.25. For MCTQ, the enrichment ratio was ≤ 0.25. With GKIK the enrichment ratio was ≤ 0.25. For HHPN, the enrichment ratio was ≤ 0.25. In the case of VWQF, the enrichment ratio is reported as ≤ 0.25. In the case of LDGV, the enrichment ratio is reported as ≤ 0.25. For LTYC, the enrichment ratio was ≤ 0.25. DWVL showed an enrichment ratio of 0.963. KQCH was tested, and the enrichment ratio was ≤ 0.25. For AIYN, the enrichment ratio was ≤ 0.25. In the case of MMRL, the enrichment ratio is reported as ≤ 0.25. For DHNQ, the enrichment ratio was ≤ 0.25. With YAQG the enrichment ratio was ≤ 0.25. For DSRR, the enrichment ratio was ≤ 0.25. With EHFV the enrichment ratio was ≤ 0.25. With RSFW the enrichment ratio was ≤ 0.25. In the case of LAFR, the enrichment ratio is reported as ≤ 0.25. With EMKC the enrichment ratio was ≤ 0.25. In the case of TRAY, the enrichment ratio is reported as ≤ 0.25. In the case of RNKD, the enrichment ratio is reported as ≤ 0.25. GLDY was tested, and the enrichment ratio was ≤ 0.25. With QNLD the enrichment ratio was ≤ 0.25. With WRQM the enrichment ratio was ≤ 0.25. For YRAW, the enrichment ratio was ≤ 0.25. For SWRT, the enrichment ratio was ≤ 0.25. In the case of RLIN, the enrichment ratio is reported as ≤ 0.25. In the case of HQGI, the enrichment ratio is reported as ≤ 0.25. In the case of DGEA, the enrichment ratio is reported as ≤ 0.25. For PEWI, the enrichment ratio was ≤ 0.25. In the case of KCYN, the enrichment ratio is reported as ≤ 0.25. In the case of IKRI, the enrichment ratio is reported as ≤ 0.25. With YHDF the enrichment ratio was ≤ 0.25. For FHYY, the enrichment ratio was ≤ 0.25. AKCM showed an enrichment ratio of 15.6. In the case of NWRT, the enrichment ratio is reported as ≤ 0.25. In the case of QLAS, the enrichment ratio is reported as ≤ 0.25. SCKL was tested, and the enrichment ratio was ≤ 0.25. In the case of PPQS, the enrichment ratio is reported as ≤ 0.25. With NITH the enrichment ratio was ≤ 0.25. WCAF was tested, and the enrichment ratio was ≤ 0.25. With QDFV the enrichment ratio was ≤ 0.25. TYVE was tested, and the enrichment ratio was ≤ 0.25. In the case of YEAA, the enrichment ratio is reported as ≤ 0.25. For SYAF, the enrichment ratio was ≤ 0.25. For GRDL, the enrichment ratio was ≤ 0.25. For LKIT, the enrichment ratio was ≤ 0.25. VHTW was tested, and the enrichment ratio was ≤ 0.25. MSEV was tested, and the enrichment ratio was ≤ 0.25. With ENWL the enrichment ratio was ≤ 0.25. In the case of WCGP, the enrichment ratio is reported as ≤ 0.25. With KFTR the enrichment ratio was ≤ 0.25. In the case of GMIP, the enrichment ratio is reported as ≤ 0.25. With TNAI the enrichment ratio was 7.87. For ICWV, the enrichment ratio was ≤ 0.25. With TNHY the enrichment ratio was ≤ 0.25. In the case of FHAQ, the enrichment ratio is reported as ≤ 0.25. In the case of HGYE, the enrichment ratio is reported as ≤ 0.25. In the case of SYVR, the enrichment ratio is reported as ≤ 0.25. TMTG showed an enrichment ratio of 3.06. In the case of WVTW, the enrichment ratio is reported as ≤ 0.25. With AIWH the enrichment ratio was ≤ 0.25. With FQMS the enrichment ratio was ≤ 0.25. In the case of FIIY, the enrichment ratio is reported as ≤ 0.25. For IQLY, the enrichment ratio was ≤ 0.25. VAHG was tested, and the enrichment ratio was ≤ 0.25. With TLHE the enrichment ratio was ≤ 0.25. KMKQ was tested, and the enrichment ratio was ≤ 0.25. In the case of IAMA, the enrichment ratio is reported as ≤ 0.25. With GQHA the enrichment ratio was ≤ 0.25. In the case of WHDP, the enrichment ratio is reported as ≤ 0.25. YTAQ was tested, and the enrichment ratio was ≤ 0.25. For NTYL, the enrichment ratio was ≤ 0.25. EDCY was tested, and the enrichment ratio was 0.972. For GSRS, the enrichment ratio was ≤ 0.25. In the case of DCGG, the enrichment ratio is reported as ≤ 0.25. AKLV was tested, and the enrichment ratio was 16.2. With HQFE the enrichment ratio was ≤ 0.25. In the case of LTPY, the enrichment ratio is reported as ≤ 0.25. With YFSK the enrichment ratio was ≤ 0.25. In the case of LENC, the enrichment ratio is reported as ≤ 0.25. For QQTV, the enrichment ratio was ≤ 0.25. With VPQV the enrichment ratio was ≤ 0.25. YVLF showed an enrichment ratio of 2.17. In the case of VPQD, the enrichment ratio is reported as ≤ 0.25. In the case of TFVW, the enrichment ratio is reported as ≤ 0.25. With LFCC the enrichment ratio was ≤ 0.25. FGVH was tested, and the enrichment ratio was ≤ 0.25. With HLNY the enrichment ratio was ≤ 0.25. TDCN gave an enrichment ratio of 15.7. With DFPR the enrichment ratio was ≤ 0.25. FRKT was tested, and the enrichment ratio was ≤ 0.25. With WIHL the enrichment ratio was ≤ 0.25. SKRC was tested, and the enrichment ratio was ≤ 0.25. In the case of IKPN, the enrichment ratio is reported as ≤ 0.25. With FGDW the enrichment ratio was ≤ 0.25. With YQSW the enrichment ratio was ≤ 0.25. In the case of AETP, the enrichment ratio is reported as ≤ 0.25. For ICNY, the enrichment ratio was ≤ 0.25. In the case of YSQK, the enrichment ratio is reported as ≤ 0.25. In the case of PPHF, the enrichment ratio is reported as ≤ 0.25. With KQKY the enrichment ratio was ≤ 0.25. With PMPY the enrichment ratio was ≤ 0.25. For ASRF, the enrichment ratio was ≤ 0.25. HVHW was tested, and the enrichment ratio was ≤ 0.25. With SGHK the enrichment ratio was ≤ 0.25. In the case of LHGP, the enrichment ratio is reported as ≤ 0.25. In the case of WLIL, the enrichment ratio is reported as ≤ 0.25. In the case of NSEV, the enrichment ratio is reported as ≤ 0.25. For YIYD, the enrichment ratio was ≤ 0.25. ILMN was tested, and the enrichment ratio was ≤ 0.25. With IWYQ the enrichment ratio was ≤ 0.25. Work on SMLI yielded an enrichment ratio of 6.17. With DECC the enrichment ratio was ≤ 0.25. With SQNW the enrichment ratio was ≤ 0.25. YDRD was tested, and the enrichment ratio was ≤ 0.25. In the case of HQVW, the enrichment ratio is reported as ≤ 0.25. TNGM gave an enrichment ratio of 6.62. For IAAR, the enrichment ratio was ≤ 0.25. YDHV was tested, and the enrichment ratio was ≤ 0.25. With WECQ the enrichment ratio was ≤ 0.25. With ACYR the enrichment ratio was ≤ 0.25. NAHR was tested, and the enrichment ratio was ≤ 0.25. MHAG was tested, and the enrichment ratio was ≤ 0.25. LGDQ was tested, and the enrichment ratio was ≤ 0.25. For YGMF, the enrichment ratio was ≤ 0.25. For KPIG, the enrichment ratio was ≤ 0.25. With MNHH the enrichment ratio was ≤ 0.25. In the case of WKEL, the enrichment ratio is reported as ≤ 0.25. With FCND the enrichment ratio was ≤ 0.25. QAGE was tested, and the enrichment ratio was ≤ 0.25. With QMGR the enrichment ratio was ≤ 0.25. VASF was tested, and the enrichment ratio was ≤ 0.25. For SWNR, the enrichment ratio was ≤ 0.25. For CTHL, the enrichment ratio was ≤ 0.25. With AWEC the enrichment ratio was ≤ 0.25. GRFY was tested, and the enrichment ratio was ≤ 0.25. Work on AILK yielded an enrichment ratio of 2.69. With YSQE the enrichment ratio was ≤ 0.25. With APLD the enrichment ratio was ≤ 0.25. In the case of RSLN, the enrichment ratio is reported as ≤ 0.25. WGGS was tested, and the enrichment ratio was ≤ 0.25. For VPLP, the enrichment ratio was ≤ 0.25. For IFEF, the enrichment ratio was ≤ 0.25. With IASN the enrichment ratio was ≤ 0.25. With NAGN the enrichment ratio was ≤ 0.25. In the case of APMM, the enrichment ratio is reported as ≤ 0.25. WETP was tested, and the enrichment ratio was ≤ 0.25. In the case of VHYL, the enrichment ratio is reported as ≤ 0.25. In the case of ELNY, the enrichment ratio is reported as ≤ 0.25. SHGY was tested, and the enrichment ratio was 10.2. With WKVK the enrichment ratio was ≤ 0.25. For PRAG, the enrichment ratio was ≤ 0.25. Work on WRLR yielded an enrichment ratio of 0.724. For EDGW, the enrichment ratio was ≤ 0.25. In the case of IVPS, the enrichment ratio is reported as ≤ 0.25. WPSR was tested, and the enrichment ratio was ≤ 0.25. QLNH was tested, and the enrichment ratio was ≤ 0.25. MMKF was tested, and the enrichment ratio was ≤ 0.25. In the case of ITNM, the enrichment ratio is reported as ≤ 0.25. VQRN was tested, and the enrichment ratio was ≤ 0.25. For DWCL, the enrichment ratio was ≤ 0.25. For AQNI, the enrichment ratio was ≤ 0.25. Work on AMGD yielded an enrichment ratio of 11.5. With NSHG the enrichment ratio was ≤ 0.25. VIFM was tested, and the enrichment ratio was ≤ 0.25. KNSW was tested, and the enrichment ratio was ≤ 0.25. Work on YICL yielded an enrichment ratio of 3.21. For DEND, the enrichment ratio was ≤ 0.25. In the case of HKAD, the enrichment ratio is reported as ≤ 0.25. TYTY was tested, and the enrichment ratio was 0.386. With HFKV the enrichment ratio was ≤ 0.25. For IDST, the enrichment ratio was ≤ 0.25. In the case of IPLQ, the enrichment ratio is reported as ≤ 0.25. WFIQ was tested, and the enrichment ratio was ≤ 0.25. For ICGQ, the enrichment ratio was ≤ 0.25. In the case of EAYW, the enrichment ratio is reported as ≤ 0.25. In the case of EYFE, the enrichment ratio is reported as ≤ 0.25. In the case of TKYG, the enrichment ratio is reported as ≤ 0.25. For KSEI, the enrichment ratio was ≤ 0.25. For YFYY, the enrichment ratio was ≤ 0.25.
